According to PubChem BioAssay (Tox21):
Where “and” joins values, the source holds several entries; their conditions need not be identical. Equal entries are not always repeated. Inconclusive results, whose numbers are uncertain, are shown with a selection of clear calls. Where a call stands in place of a potency, no number is given. For part of these data: Potencies of inconclusive entries are doubtful fits and often do not repeat. Calls of active or inactive are those of the source. Unless noted, calls follow the shape of the dose curve; as a rule, active = well fitted curve in the direction sought with a large enough effect in the repeat runs; inconclusive = weak or mixed curves; inactive = no such curve, though single readings can be large; an effect the other way counts as inactive or inconclusive.

Molecular target: Nuclear receptor subfamily 1 group I member 3 (Homo sapiens) (UniProt Q14994)
Test: qHTS assay to identify small molecule agonists of the constitutive androstane receptor (CAR) signaling pathway (AID 1224839); also: nearly all actives have a fitted effect of over 15% in size; also: potency is read from the fitted curve at half-maximal effect;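 as to activation: HepG2 cells stably carrying human CAR and a CYP2B6 luciferase reporter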
Conditions: HepG2 hCAR CYP2B6-luciferase, agonist mode, 24 h; series mostly up to 92.4 µM
In short: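 Stable hCAR/CYP2B6-2.2kb HepG2 line in DMEM with 10% FBS; compounds (15 concentrations) and 0.75 uM PK11195 final, 24 h at 37 C/5% CO2, then ONE-Glo luminescence after 30 min.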
Tags tell the direction and shape of the fitted curve or compound fluorescence and quenching.

Sequence of UniProt Q14994 (Q14994 whole entry, looked up): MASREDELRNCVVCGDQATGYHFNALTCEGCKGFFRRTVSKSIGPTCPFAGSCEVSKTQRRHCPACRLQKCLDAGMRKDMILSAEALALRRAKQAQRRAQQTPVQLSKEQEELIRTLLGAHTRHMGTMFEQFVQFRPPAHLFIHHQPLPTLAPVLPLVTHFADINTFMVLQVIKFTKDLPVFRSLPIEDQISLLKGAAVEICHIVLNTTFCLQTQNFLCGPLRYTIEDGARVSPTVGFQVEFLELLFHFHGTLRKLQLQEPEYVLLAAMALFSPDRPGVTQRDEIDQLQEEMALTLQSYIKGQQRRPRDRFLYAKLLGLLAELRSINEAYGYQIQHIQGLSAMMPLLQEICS

Q: Which Potency does the source give for `COCC(C)OC(C)=O` (stereo not given) here?
A: The Potency was “inactive”.

Q: For `NCc1ccccc1Sc1ccccc1CO`, which Potency is on record?
A: The Potency was “inactive”.

Q: With `CCCCCCCCCOS(=O)(=O)O` as the compound, how does the Potency read?
A: Its Potency is “inactive”.

Q: For `CN(C)CCc1c[nH]c2ccc(CS(=O)(=O)N3CCCC3)cc12`, which Potency is on record?
A: The Potency was “inactive”.

Q: Which Potency does the source give for `FC(F)(F)C(F)(F)C(F)(F)C(F)(F)C(F)(F)C(F)(F)C(F)(F)C(F)(F)C(F)(F)C(F)(F)F` here?
A: The Potency was inconclusive: 2.82 µM [activator, partial curve].

Q: For `CCCCCCCCCCCCCCCCCC#N`, which Potency is on record?
A: The Potency was “inactive”.

Q: Which Potency does the source give for `O=Cc1cc2ccccc2o1` here?
A: The Potency was “inactive”.

Q: With `CC[N+](C)(CC)CC` as the compound, how does the Potency read?
A: The Potency was “inactive”.

Q: With `O=C1Nc2ccccc2C1=O` as the compound, how does the Potency read?
A: Its Potency is inconclusive: 54 µM [activator, partial curve, poor fit].

Q: For `CC1=C(C/C=C(\C)CCC[C@H](C)CCC[C@H](C)CCCC(C)C)C(=O)c2ccccc2C1=O`, which Potency is on record?
A: The Potency was “inactive”.

Q: Which Potency does the source give for `C=CC(C)C#N` (stereo not given) here?
A: The Potency was “inactive”.

Q: With `O=C1NC(=O)C(c2ccccc2)(c2ccccc2)N1` as the compound, how does the Potency read?
A: Its Potency is inconclusive: 61.1 µM [activator] and inconclusive: 34.4 µM [activator, partial curve].

Q: Which Potency does the source give for `c1ccc2c(c1)[nH]c1ccccc12` here?
A: Its Potency is inconclusive: 54.5 µM [activator, partial curve].

Q: Which Potency does the source give for `COC(=O)c1ccc(C=O)cc1` here?
A: The Potency was “inactive”.

Q: Which Potency does the source give for `Cc1ccc(O)c(C(=O)c2ccccc2)c1` here?
A: The Potency was inconclusive: 55 µM [activator, partial curve, poor fit].

Q: With `CC(C)(C)c1nnc(NS(=O)(=O)c2ccc(N)cc2)s1` as the compound, how does the Potency read?
A: Its Potency is “inactive”.

Q: For `Clc1ccc2c(c1)Nc1ccccc1S2`, which Potency is on record?
A: Its Potency is inconclusive: 26.6 µM [activator].

Q: With `CC(C)(C)c1cc(CCC(=O)NCCCCCCNC(=O)CCc2cc(C(C)(C)C)c(O)c(C(C)(C)C)c2)cc(C(C)(C)C)c1O` as the compound, how does the Potency read?
A: Its Potency is “inactive”.

Q: With `CN1CN(C)CN(C)C1` as the compound, how does the Potency read?
A: Its Potency is “inactive”.

Q: With `C/C=C1\C(=O)C[C@H]2[C@@H]3CCC4=CC(=O)CC[C@]4(C)[C@H]3CC[C@]12C` as the compound, how does the Potency read?
A: Its Potency is inconclusive: 13.4 µM [activator, partial curve].

Test system: not listed separately
Test: qHTS assay to identify small molecule antagonists of the estrogen related receptor signaling pathway with the pleiotropic PPARgamma coactivator (PGC) from Tox21 10K library - cell viability counter screen (AID 1224840; active = well fitted cell-killing curve with a large enough effect in the repeat runs, not every such curve was filed as active; inconclusive = weak or mixed curves, or effect the other way; inactive = no such curve, though single readings can be large or run the other way; also: nearly all actives have a fitted effect of over 40% in size)
Conditions: PGC/ERR reporter cells viability, CellTiter-Fluor, 17.5 h; series mostly up to 92.4 µM
In short: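 Readout: fluorescence intensity from CellTiter-Fluor after 30 min at 37 C/5% CO2. Preceded by 17.5 h treatment of PGC/ERR cells with DMSO-dissolved compounds, added 6 h post-seeding.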

Q: For `FC(F)(F)C(F)(F)C(F)(F)C(F)(F)C(F)(F)C(F)(F)C(F)(F)C(F)(F)C(F)(F)C(F)(F)F`, which viability change, negative = cytotoxic is on record?
A: The viability change, negative = cytotoxic was inactive: -2.77% [at 8.39 µM].

Q: For `Cc1ccc(O)c([N+](=O)[O-])c1`, which Potency is on record?
A: Its Potency is “inactive”.

Q: Which Potency does the source give for `CN1CN(C)CN(C)C1` here?
A: The Potency was “inactive”.

Q: With `C/C=C1\C(=O)C[C@H]2[C@@H]3CCC4=CC(=O)CC[C@]4(C)[C@H]3CC[C@]12C` as the compound, how does the Potency read?
A: Its Potency is “inactive”.

Test system: not listed separately
Test: qHTS assay to identify small molecule antagonists of the estrogen related receptor signaling pathway with the pleiotropic PPARgamma coactivator (PGC) from Tox21 10K library (AID 1224841; call rule not given here; also: actives are mostly falling curves and most rising ones were filed inactive; nearly all actives have a fitted effect of over 50% in size; also: potency is read from the fitted curve at half-maximal effect)
Conditions: PGC/ERR reporter cell line, ONE-Glo luciferase, 18 h; series mostly up to 92.4 µM
In short: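 One-Glo luminescence, measured after half an hour at room temperature, quantified reporter output of PGC/ERR cells. These had been plated at 2,000 per well, incubated 6 h, dosed with compounds in DMSO, then kept 18 h at 37 C.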

Q: Which Potency does the source give for `Cc1ccc(O)c([N+](=O)[O-])c1` here?
A: The Potency was “inactive”.

Q: For `CC1=C(C/C=C(\C)CCC[C@H](C)CCC[C@H](C)CCCC(C)C)C(=O)c2ccccc2C1=O`, which Potency is on record?
A: Its Potency is “inactive”.

Q: For `Nc1ccc(C(=O)N2CC3CC(CN(Cc4ccccc4)C3)C2)cc1`, which Potency is on record?
A: The Potency was inconclusive: 26.6 µM [falling, partial curve].

Test system: not listed separately
Test: qHTS assay to identify small molecule agonists of the hypoxia (HIF-1) signaling pathway - cell viability counter screen (AID 1224844; calls by dose curve; also: nearly all actives have a fitted effect of over 50% in size; also: potency is read from the fitted curve at half-maximal effect)
Conditions: HRE-bla ME-180 viability, CellTiter-Glo luminescence, 17 h; series mostly up to 76.8 µM
In short: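 In this counter screen, HRE-bla ME-180 cell viability after 17 hrs of compound exposure at 37C was read by CellTiter-Glo luminescence, multiplexed with the beta-lactamase reporter measurement.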

Q: For `CCCCCCCCCCCCCCCCCC#N`, which Potency is on record?
A: The Potency was inconclusive: 14 µM [cytotoxic, full curve, poor fit].

Q: With `O=C1NC(=O)C(c2ccccc2)(c2ccccc2)N1` as the compound, how does the Potency read?
A: Its Potency is inconclusive: 19.5 µM [cytotoxic, partial curve, poor fit].

Q: With `c1ccc2c(c1)[nH]c1ccccc12` as the compound, how does the Potency read?
A: The Potency was “inactive”.

Q: With `C/C=C1\C(=O)C[C@H]2[C@@H]3CCC4=CC(=O)CC[C@]4(C)[C@H]3CC[C@]12C` as the compound, how does the Potency read?
A: The Potency was “inactive”.

Test system: not listed separately
Test: qHTS assay to identify small molecule agonists of H2AX (AID 1224845; active = well fitted activation curve with a large enough effect in the signal ratio in the repeat runs, not every such curve was filed as active; inconclusive = weak or mixed curves; the % refers to the signal ratio; also: potency is read from the fitted curve at half-maximal effect)
Conditions: CHO-K1 phospho-H2AX Ser139 HTRF, 3 h; activation (H2AX phosphorylation): at 154 µM (top of the series) unless noted
In short: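 Wild-type CHO-K1 cells plated overnight, then exposed 3 hr at 37C to compounds at 15 concentrations (0.76% DMSO). Lysed, then HTRF anti-pH2AX(S139)-cryptate/anti-H2AX-d2 detection after 24 hr at room temperature; emissions 665 and 620 nm.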

Q: For `CC/C=C\CCCCO`, which Potency is on record?
A: Its Potency is “inactive”.

Q: With `Cc1ccc(O)c([N+](=O)[O-])c1` as the compound, how does the Potency read?
A: The Potency was inconclusive: 114 µM [rising, partial curve, poor fit].

Q: For `Clc1ccc2c(c1)Nc1ccccc1S2`, which Potency is on record?
A: Its Potency is inconclusive: 55.2 µM [falling, single point].

Q: With `CN1CN(C)CN(C)C1` as the compound, how does the Potency read?
A: The Potency was “inactive”.

Test system: not listed separately
Test: qHTS assay to identify small molecule agonists of H2AX - cell viability counter screen (AID 1224847; calls by dose curve; also: nearly all actives have a fitted effect of over 30% in size; also: potency is read from the fitted curve at half-maximal effect; as to activity change, negative = cytotoxicity: top concentration of the series differs between compounds)
Conditions: CHO-K1 viability, CellTiter-Glo luminescence, 3 h; series mostly up to 154 µM
In short: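 Viability of CHO-K1 (wild type) cells after 3 hr compound exposure was measured by CellTiter-Glo luminescence.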

Q: Which activity change, negative = cytotoxicity does the source give for `NCC[C@H](O)C(=O)N[C@@H]1C[C@H](N)[C@@H](O[C@H]2O[C@H](CN)[C@@H](O)[C@H](O)[C@H]2O)[C@H](O)[C@H]1O[C@H]1O[C@H](CO)[C@@H](O)[C@H](N)[C@H]1O` here?
A: Its activity change, negative = cytotoxicity is inactive: 2.46% [at 0.582 µM].

Q: For `O=C(O)/C=C/c1ccccc1`, which Potency is on record?
A: The Potency was inconclusive: 1.79 µM [cytotoxic, single point].

Q: With `CC(C)OC(=O)C(C(=O)OC(C)C)=C1SC=CS1` as the compound, how does the Potency read?
A: Its Potency is inconclusive: 55.2 µM [cytotoxic, single point].

Q: Which Potency does the source give for `CC1=C(C/C=C(\C)CCC[C@H](C)CCC[C@H](C)CCCC(C)C)C(=O)c2ccccc2C1=O` here?
A: The Potency was “inactive”.

Q: With `Cc1ccc(O)c(C(=O)c2ccccc2)c1` as the compound, how does the Potency read?
A: The Potency was inconclusive: 102 µM [cytotoxic, single point].

Q: For `C/C=C1\C(=O)C[C@H]2[C@@H]3CCC4=CC(=O)CC[C@]4(C)[C@H]3CC[C@]12C`, which Potency is on record?
A: The Potency was active: 55.5 µM.

Test system: not listed separately
Test: qHTS assay to identify small molecule antagonists of the estrogen related receptor (ERR) signaling pathway from Tox21 library (AID 1224848); also: nearly all actives have a fitted effect of over 50% in size; also: potency is read from the fitted curve at half-maximal effect
Conditions: ERR reporter cell line, luciferase antagonist mode, 18 h; series mostly up to 92.4 µM
In short: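 Tox21 10K compounds in DMSO tested for ERR pathway antagonism in NTP's ERR cell line; 18 h, 37 C exposure; ONE-Glo luminescence.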

Q: With `CC(C)OC(=O)C(C(=O)OC(C)C)=C1SC=CS1` as the compound, how does the Potency read?
A: The Potency was inconclusive: 33.5 µM [inhibitor, single point].

Q: With `Cc1ccc(O)c([N+](=O)[O-])c1` as the compound, how does the Potency read?
A: The Potency was inconclusive: 61.9 µM [inhibitor, partial curve, poor fit].

Q: Which Potency does the source give for `COC(=O)c1ccc(C=O)cc1` here?
A: The Potency was “inactive”.

Q: Which Potency does the source give for `CN1CN(C)CN(C)C1` here?
A: Its Potency is “inactive”.
